± gives the standard deviation of the averaged measurements. This is one part of the list.
System: PfAP2-LT AP2 domain (GST-tagged)
Assay: gcPBM binding intensity (ln(normalized median fluorescence intensity)); higher = stronger DNA binding
Procedure, shortened: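 Binding intensity values are the highest Masliner-normalised natural-log median intensity among replicate spots of either probe orientation. The binding step lasted 1 h in 1× PBS with 1% milk, 0.2 mg/ml BSA, 0.5% salmon testes DNA and 0.03% Triton X-100, using GST-tagged P. falciparum DNA-binding domains expressed in E. coli on an Agilent 4 × 180k array of primer-extended double-stranded 36-bp intergenic genomic probes plus negative controls. Alexa488 anti-GST antibody and a 488 nm scan detected bound protein.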

Sequence	gcPBM binding intensity (ln)
TTGATATGTACAGGCACACATAAATTTCACAAATAT [CACACA_site3999]	9.16 ± 0.4
CGTATTATTTTATAAACACACAAGGGGGCATGTATA [CACACA_site6489]	9.475 ± 0.0071
CTTTAGTTTTTAATGTGTACTGAATTTGAATAGTAG [XGTACX_site7920]	8.59 ± 0.4
ATATAATTAAAAACATGTACATATATATATATATAT [XGTACX_site2882]	9.62 ± 0.085
CATAAATGTATATAAACATGCAAGGACAGACTTTTA [TGCATGCA_site900]	8.92 ± 0.37
TAAGTCGTTATAAGCACACACATAAATAAAAATAAA [CACACA_site1574]	9.12 ± 0.3
AAGGGTTATAAAAATTGTACTTTTTTTATTTTTTTT [XGTACX_site1313]	8.6 ± 0.49
TCAATTTTTTAATGTTGTACTTTGTAAAAAAAAATA [XGTACX_site8481]	8.17 ± 0.41
ATATATTTATATAGGTGTACATATTTTGCTATTCAA [XGTACX_site5199]	8.75 ± 0.38
ATACCAAATGAATAATGTACATACGAACATACATAT [XGTACX_site1301]	9.1 ± 0.37
GTACATTGTAAGGATGGAAAAGCTAAACATTATAAT [XGTACX_negctrl_site339]	8.9 ± 0.33
ATATTTTTAACCAAGGACACAATTCTTGTATTGTTA [CACACA_negctrl_site1326]	8.59 ± 0.5
AAAAGATTAAGTAGAATAATGTTCTTTCCCAACATA [GTGCAC_negctrl_site223]	8.38 ± 0.45
CATTTAGAATAAGGCACACATAAAGAACACTTTCCA [CACACA_site130]	8.87 ± 0.45
TTATCTTAATTGTGATTATAAAGATATTCTTTCTAT [GTGCAC_negctrl_site410]	8.4 ± 0.57
CAACCTCATAATATTTAACACACAAAATTATATGTA [CACACA_site8496]	8.85 ± 0.35
ATATATACATATATATGTACGTATATTTTTATTTCT [XGTACX_site6198]	9.07 ± 0.42
TATAAACCCACCTACACACACAACGTAAATGCATTG [CACACA_site2238]	9.65 ± 0.28
ATTTAACAACTTCAAACACACAATATAGATTTATAT [CACACA_site7067]	8.73 ± 0.4
AACATACACATATACACACACACATATATACATATA [CACACA_site1093]	9.89 ± 0.23
AAAAAAAAAAAAACATGTACATAAATGTAAAAAAGT [XGTACX_site8158]	9.52 ± 0.54
GCTTTTGAAAATATACACATGTTAGGAATACAGGGG [TGCATGCA_negctrl_site480]	9.36 ± 0.26
TATAATAACAATTTAGTGCATATAATAATATTTTAT	8.55 ± 0.44
ACATATAAAATGTATACACACAAATATTACAGAGAT [CACACA_site4920]	9.29 ± 0.41
